# About 4,000 (4.3%) of roughly 94,000 compounds were called active. Inconclusive means that the source gave no clear call. Such entries were picked first, then a sample of the others. Calls come from the whole dose curve; as a rule, active = well fitted inhibition curve with a large enough effect; inconclusive = small, poorly fitted or top-dose-only effect; inactive = no such curve, though single readings can be large or run the other way. Potencies beside an inconclusive call are fits to weak or partial responses and may not hold up.
# Assay: Cytotoxic Profiling in NIH 3T3 Cell Line of Diverse Libraries Using Quantitative High-Throughput Screening; note: nearly all actives have a fitted effect of over 55% in size
# Details: NIH 3T3 viability, CellTiter-Glo ATP luminescence, 48-72 h; activity change, negative = cytotoxicity: at 96.7 µM (top of the series) unless noted; series mostly up to 96.7 µM
# In short: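 NIH 3T3 cells at 400 cells/well received 23 nL of compound by pintool and were incubated 48 or 72 h at 37 °C. Viability was read as ATP-coupled CellTiter-Glo luminescence.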
# % is set by controls: 0 for no effect and ±100 for the full control effect; potency is the fitted concentration of half-maximal effect; tags give direction and shape of the fitted curve.
SMILES,"activity change, negative = cytotoxicity",Potency,outcome
CC(=O)Nc1ccc(CNC2(Cc3cc(CN(C)C)on3)COC2)cc1,inactive: -9.22% [at 138 µM],–,–
CSc1ccc(-c2cccc(CN3CCC(NC(=O)NC4CCCC4)CC3)c2)cc1,inactive: -17%,–,–
Cn1cc(CN2CCC(C(O)c3cccnc3)CC2)c(-c2ccc(C3CCCCC3)cc2)n1 (centres undefined),–,active: 79.4 µM,–
CCc1ccccc1NC(=O)N1c2ccccc2CC1c1nc(C2CC2)no1 (centres undefined),–,"inconclusive: 70.8 µM [inhibitor, single point]",–
NCc1ccccc1-c1cc(C(F)(F)F)ccc1Cl,–,"inconclusive: 79.4 µM [inhibitor, partial curve, poor fit]",–
CC(=O)N1CCC[C@H](n2c(=O)n(C)c3cccnc32)C1,inactive: 0.947%,–,–
COc1cccc(-c2noc(CC3CCN(C(=O)CCCc4ccccc4)CC3)n2)c1,–,"inconclusive: 44.7 µM [inhibitor, partial curve, poor fit]",–
COc1ccccc1CN1C(=O)COC[C@@H]1[C@H](O)c1ccc(NC(=O)c2ccc(C#N)cc2)cc1,–,active: 44.7 µM,–
CCC1(N2CCN(S(=O)(=O)c3ccc(C(F)(F)F)cc3)CC2)CCN(C(=O)NC)C1 (centres undefined),–,"inconclusive: 50.1 µM [inhibitor, single point]",–
O=C(N[C@@H]1CN(c2ncccn2)C[C@H]1CO)c1ccco1,inactive: -10.3%,–,–
COc1ccc(N2C(=O)C3(CCCCC3)C2C(=O)O)cc1 (centres undefined),–,–,inactive
COc1ccc(CN2C(=O)[C@@H]3C[C@@H](CN3Cc3ccc(S(C)(=O)=O)cc3)Oc3ccccc32)cc1,–,"inconclusive: 50.1 µM [inhibitor, partial curve, poor fit]",–
Cc1cc(C)cc(C(=O)N2CCc3[nH]nc(C(=O)N(C)C)c3C2)c1,inactive: -15.2%,–,–
O=C(c1ccccc1F)N1CCN(Cc2ccccc2-c2ccccc2F)CC1,–,"inconclusive: 44.7 µM [inhibitor, partial curve, poor fit]",–
CC(C)c1noc(C2CCCN(C(=O)C3(c4ccccc4)CC3)CCC(=O)NCC2)n1 (centres undefined),inactive: -16.6%,–,–
O=C(c1cc2ccccc2[nH]1)N1CCC2(C1)NC(=O)N(Cc1ccc(F)cc1)C2=O (centres undefined),–,"inconclusive: 50.1 µM [inhibitor, partial curve, poor fit]",–
CN1CC(=O)N(C2CCC2)Cc2c(NC3CCCC3)ncnc21,–,"inconclusive: 56.2 µM [inhibitor, partial curve, poor fit]",–
Cc1cn2nc(C(=O)Nc3ccccc3C)cc2c(N2CCSCC2)n1,inactive: -15%,–,–
CCC1=C(C(=O)OC)C(c2cccc(OC)c2OC)N2C(CC(=O)N3CCOCC3)=CSC2=N1 (centres undefined),inactive: -2.22%,–,–
COc1ccc(CN2C[C@H]3CN(Cc4ccc(Cl)cc4)CCN3C2=O)cc1,–,"inconclusive: 89.1 µM [inhibitor, partial curve]",–
COc1ccc(CC(=O)Nc2ccc([C@@H](O)[C@H]3COCC(=O)N3Cc3ccccc3F)cc2)cc1,–,"inconclusive: 89.1 µM [inhibitor, single point]",–
COc1ccc(Nc2ccnc(N3CCN(C(=O)C(C)(C)C)CC3)n2)cc1,–,"inconclusive: 50.1 µM [inhibitor, partial curve, poor fit]",–

SMILES,"activity change, negative = cytotoxicity",Potency,outcome
Fc1ccc2nc([C@H]3CCN(Cc4ccc(F)c(F)c4)C3)[nH]c2c1,–,"inconclusive: 63.1 µM [inhibitor, partial curve, poor fit]",–
CC[C@H]1CN(C(=O)Nc2cccc(OC)c2)CC[C@H]1CC(=O)N1CCC(C(=O)OC)CC1,–,"inconclusive: 39.8 µM [inhibitor, partial curve, poor fit]",–
CCC1Oc2ccc(NC(=O)c3ccccc3F)cc2CN(Cc2ccc(OC)cc2)C1=O (centres undefined),–,"inconclusive: 50.1 µM [inhibitor, partial curve, poor fit]",–
O=C(Nc1cccc(-c2nnc3n2CCCC3)c1)c1ccc2ccccc2n1,inactive: -23.4%,–,–
O=C1Cc2c(-c3ccoc3)n[nH]c2CN1Cc1ccccc1,–,"inconclusive: 39.8 µM [inhibitor, partial curve]",–
Cc1ccccc1-n1nc(C)c(CCC(=O)NCC2CC2)c1Oc1ccccc1,–,"inconclusive: 50.1 µM [inhibitor, partial curve, poor fit]",–
COc1ccccc1CN1CCOc2cc([S+](=O)([O-])N(C)C)ccc2C1,–,"inconclusive: 79.4 µM [inhibitor, partial curve, poor fit]",–
O=C1COc2ccc(-c3cccnc3)nc2CN1Cc1ccc(C(F)(F)F)cc1,–,"inconclusive: 35.5 µM [inhibitor, partial curve, poor fit]",–
Cc1cccc(NC(=O)Nc2ccc(C)n(CC(=O)Nc3ccc(C)c(C)c3)c2=O)c1,–,active: 31.6 µM,–
CN(C)C(=O)c1cn2cc(-c3ccccc3)sc2n1,–,"inconclusive: 56.2 µM [inhibitor, partial curve, poor fit]",–
Fc1ccc(-c2cc(-c3cn[nH]c3)c3cncn3c2)cc1,–,active: 44.7 µM,–
CC(C)c1nc2c(c(-c3ccc(O)cc3)n1)CN(C(=O)c1ccccc1Cl)CC2,–,"inconclusive: 56.2 µM [inhibitor, partial curve, poor fit]",–
c1ccc(-c2ccc(CN[C@H]3CO[C@H]4[C@@H]3OC[C@@H]4n3cc(CC4CCCCC4)nn3)cc2)cc1,–,"inconclusive: 20 µM [inhibitor, full curve, poor fit]",–
CC1(COc2ccccc2)COc2ccc(C(=O)NC3CCC(O)CC3)cc2N1 (centres undefined),–,"inconclusive: 100 µM [inhibitor, partial curve, poor fit]",–
CN(Cc1ccccc1)Cc1cc(C[C@H]2CNCC[C@H]2CC(=O)NC2CCCCC2)no1,–,active: 79.4 µM,–
CNC(=O)c1cccc2c1CCN2C(=O)Nc1ccc(C)cc1,–,"inconclusive: 50.1 µM [inhibitor, partial curve, poor fit]",–
CC(=O)N1CCC(NC[C@@H]2C=C(C)[C@H](Cc3nc4ccccc4[nH]3)C[C@H]2C(C)C)CC1,–,active: 112 µM,–
CCCCNC(=O)N1CC(C(=O)NC(C)c2ccccc2)CC(c2ccc(OC)c(OC)c2)C1 (centres undefined),–,"inconclusive: 50.1 µM [inhibitor, partial curve, poor fit]",–
O=C(NCc1ccccc1Cl)c1csc(N2CCN(c3ccc(F)cc3)CC2)n1,–,"inconclusive: 12.6 µM [inhibitor, full curve, poor fit]",–
CCOC(=O)C1CCCN(C(=O)Cc2ccc(N(Cc3cccc(F)c3)C(=O)c3ccco3)cc2)C1 (centres undefined),–,"inconclusive: 44.7 µM [inhibitor, partial curve, poor fit]",–
CCCCc1ccc(NC(=O)Cn2c(C)cc3nc4n(c(=O)c32)CCCCC4)cc1,–,"inconclusive: 44.7 µM [inhibitor, partial curve, poor fit]",–
CC(=O)N1CCC(N2C[C@H](O)C[C@H]2c2nc(-c3ccc(C(F)(F)F)cc3)no2)CC1,–,"inconclusive: 112 µM [inhibitor, partial curve, poor fit]",–

SMILES,"activity change, negative = cytotoxicity",Potency,outcome
Cc1ccccc1S(=O)(=O)N1CCCC(CCC(=O)N2CCc3ccccc3C2)C1 (centres undefined),–,"inconclusive: 70.8 µM [inhibitor, single point]",–
COc1ccc(CCNC(=O)c2cc3c(N4CCSCC4)nc(C)cn3n2)cc1OC,–,"inconclusive: 70.8 µM [inhibitor, single point]",–
Cn1nc(C2CCN(C(=O)C3CCCO3)CC2)c2c1CCOC2 (centres undefined),–,–,inactive
C[C@H]1[C@@H]2[C@@H](O)C([C@H](C)C(=O)NCc3ccccn3)CC[C@@]2(C)CC[C@@H]1NC(=O)c1ccccc1 (some centres undefined),inactive: -20.4%,–,–
COc1cccc(Nc2ccnc(N3CCN(C(C)=O)CC3)n2)c1,–,"inconclusive: 56.2 µM [inhibitor, partial curve, poor fit]",–
CNC(=O)c1cnc2c(c1)N(Cc1ccccc1)CCC2,–,"inconclusive: 100 µM [inhibitor, partial curve, poor fit]",–
O=C1NCCCCCCN(C(=O)CC2CCCCC2)[C@H]2C[C@H](c3nc(Cc4ccccc4)no3)C[C@@H]12,–,active: 35.5 µM,–
CN1C(=O)c2cccn2CC1CNS(=O)(=O)c1ccccc1 (centres undefined),–,"inconclusive: 39.8 µM [inhibitor, partial curve, poor fit]",–
Cc1c(C(C)NC(=O)C(=O)c2ccco2)cnn1-c1cccc2ccccc12 (centres undefined),–,"inconclusive: 50.1 µM [inhibitor, partial curve, poor fit]",–
CCN(CC)C(=O)[C@@H](C)C1CC[C@@]2(C)Cc3sc(N)nc3[C@@H](C)[C@@H]2[C@H]1O (some centres undefined),inactive: -15.1% [at 174 µM],–,–
COc1ccc(CN2CCCC3(Cc4ccccc4CNC3=O)C2)cc1F (centres undefined),–,"inconclusive: 39.8 µM [inhibitor, partial curve, poor fit]",–
O=C(CCc1conc1-c1ccccc1)NCc1ccccc1F,inactive: -1.47%,–,–
COc1ccc(-c2noc(-c3ncn4c3COC(c3ccc(F)cc3)C4)n2)c(OC)c1 (centres undefined),–,active: 31.6 µM,–
O=C1CN(C(=O)CCC(=O)N2CCC(CCOc3ccc(F)cc3)C2)c2ccccc2N1 (centres undefined),–,"inconclusive: 35.5 µM [inhibitor, partial curve]",–
Cc1ccc(-n2cc(CN3CCN(C)C(CCO)C3)cn2)cc1 (centres undefined),inactive: -8.1%,–,–
Cc1ccc(CNC(=O)[C@@]23CCCC[C@H]2N(C)C(=O)CC3)cc1,inactive: -26.3%,–,–
COc1ccccc1Nc1ccnc(N2CCCC2C(=O)NCC2CC2)n1 (centres undefined),–,"inconclusive: 44.7 µM [inhibitor, partial curve, poor fit]",–
Cc1cc(C(=O)N2C[C@@H](CO)[C@H](c3ccccn3)C2)n(C)n1,inactive: -16.6%,–,–
COc1ccccc1-c1[nH]nc2ncc(C(=O)NCCc3ccccn3)nc12,–,"inconclusive: 11.2 µM [inhibitor, full curve, poor fit]",–
Cc1cc(=O)n(CC(=O)Nc2ccc(N(C)C)cc2)c(-c2ccccc2)n1,–,"inconclusive: 25.1 µM [inhibitor, partial curve]",–

# From PubChem BioAssay AID1345082 (National Center for Advancing Translational Sciences (NCATS), 2018)
